# The list shows a part of the results.
# B1: HBHA-Rv (Mycobacterium tuberculosum), P0A5P6 (protein)
# chain: MAENSNIDDIKAPLLAALGAADLALATVNELITNLRERAEETRTDTRSRVEESRARLTKLQEDLPEQLTELREKFTAEELRKAAEGYLEAATSRYNELVERGEAALERLRSQQSFEEVSARAEGYVDQAVELTQEALGTVASQTRAVGERAAKLVGIELPKKAAPAKKAAPAKKAAPAKKAAAKKAPAKKAAAKKVTQK
# Tests used:
# Test in all cases: glycan array binding signal (z-score within array); higher = stronger binding
# Settings in all cases: glycan notation: IUPAC condensed, linker removed
# GalNAc(b1-4)GlcNAc = molecular target: GalNAc(b1-4)GlcNAc
# Outline: (§1)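 The binding signal is a Z-score computed within each array and averaged over linkers. Arrays of the same protein sequence at different concentrations or buffers were also averaged together. Data originate from 3228 arrays in the Consortium for Functional Glycomics database, kept only where the protein sequence was available.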
# [1] = molecular target: GalNAc(b1-4)GlcNAc(b1-2)Man
# Outline: as §1
# [2] = molecular target: GalNAc(b1-4)GlcNAc(b1-2)Man(a1-3)[GalNAc(b1-4)GlcNAc(b1-2)Man(a1-6)]Man(b1-4)GlcNAc(b1-4)GlcNAc
# Outline: as §1
# [3] = molecular target: GalNAc(b1-4)GlcNAc(b1-3)GalNAc(b1-4)GlcNAc
# Outline: as §1
# GalNAc(b1-4)GlcNAc6S = molecular target: GalNAc(b1-4)GlcNAc6S
# Outline: as §1
# GalNAc(b1-6)GalNAc = molecular target: GalNAc(b1-6)GalNAc
# Outline: as §1
# GalNAc3S(b1-4)GlcNAc = molecular target: GalNAc3S(b1-4)GlcNAc
# Outline: as §1
# GalNAc3S(b1-4)GlcNAc3S = molecular target: GalNAc3S(b1-4)GlcNAc3S
# Outline: as §1
# [4] = molecular target: GalNAc3S(b1-4)[Fuc(a1-3)]GlcNAc
# Outline: as §1
# GalNAc4S6S(b1-4)GlcNAc = molecular target: GalNAc4S6S(b1-4)GlcNAc
# Outline: as §1
# GalNAc6S(b1-4)GlcNAc = molecular target: GalNAc6S(b1-4)GlcNAc
# Outline: as §1
# Glc(a1-4)Glc = molecular target: Glc(a1-4)Glc
# Outline: as §1
# [5] = molecular target: Glc(a1-4)Glc(a1-4)Glc(a1-4)Glc
# Outline: as §1
# Glc(a1-6)Glc(a1-6)Glc = molecular target: Glc(a1-6)Glc(a1-6)Glc
# Outline: as §1
# [6] = molecular target: Glc(a1-6)Glc(a1-6)Glc(a1-6)Glc
# Outline: as §1
# Glc(b1-4)Glc = molecular target: Glc(b1-4)Glc
# Outline: as §1
# Glc(b1-6)Glc = molecular target: Glc(b1-6)Glc
# Outline: as §1
# GlcA(b1-3)Gal = molecular target: GlcA(b1-3)Gal
# Outline: as §1
# GlcA(b1-3)GlcNAc = molecular target: GlcA(b1-3)GlcNAc
# Outline: as §1
# GlcA(b1-6)Gal = molecular target: GlcA(b1-6)Gal
# Outline: as §1
# [7] = molecular target: GlcA3S(b1-3)Gal(b1-4)GlcNAc(b1-2)Man
# Outline: as §1
# [8] = molecular target: GlcA3S(b1-3)Gal(b1-4)GlcNAc(b1-3)Gal(b1-4)Glc
# Outline: as §1
# [9] = molecular target: GlcNAc(a1-3)Gal(b1-4)GlcNAc
# Outline: as §1
# [10] = molecular target: GlcNAc(a1-4)Gal(b1-3)GlcNAc
# Outline: as §1
# [11] = molecular target: GlcNAc(a1-4)Gal(b1-4)GalNAc
# Outline: as §1
# [12] = molecular target: GlcNAc(a1-4)Gal(b1-4)GlcNAc
# Outline: as §1
# [13] = molecular target: GlcNAc(a1-4)Gal(b1-4)GlcNAc(b1-3)Gal(b1-4)Glc
# Outline: as §1
# [14] = molecular target: GlcNAc(a1-4)Gal(b1-4)GlcNAc(b1-3)Gal(b1-4)GlcNAc
# Outline: as §1
# [15] = molecular target: GlcNAc(a1-4)Gal(b1-4)GlcNAc(b1-3)Gal(b1-4)GlcNAc(b1-3)Gal(b1-4)GlcNAc
# Outline: as §1
# [16] = molecular target: GlcNAc(a1-4)Gal(b1-4)GlcNAc(b1-3)Gal(b1-4)[Fuc(a1-3)]GlcNAc(b1-3)Gal(b1-4)[Fuc(a1-3)]GlcNAc
# Outline: as §1
# [17] = molecular target: GlcNAc(a1-6)Gal(b1-4)GlcNAc
# Outline: as §1
# [18] = molecular target: GlcNAc(b1-2)Gal(b1-3)GalNAc
# Outline: as §1
# [19] = molecular target: GlcNAc(b1-2)Man(a1-3)[GlcNAc(b1-2)Man(a1-6)]Man(b1-4)GlcNAc(b1-4)GlcNAc
# Outline: as §1
# [20] = molecular target: GlcNAc(b1-2)Man(a1-3)[GlcNAc(b1-2)Man(a1-6)]Man(b1-4)GlcNAc(b1-4)[Fuc(a1-6)]GlcNAc
# Outline: as §1
# [21] = molecular target: GlcNAc(b1-2)Man(a1-3)[GlcNAc(b1-4)][GlcNAc(b1-2)Man(a1-6)]Man(b1-4)GlcNAc(b1-4)GlcNAc
# Outline: as §1
# [22] = molecular target: GlcNAc(b1-2)Man(a1-3)[GlcNAc(b1-4)][GlcNAc(b1-2)Man(a1-6)]Man(b1-4)GlcNAc(b1-4)[Fuc(a1-6)]GlcNAc
# Outline: as §1
# [23] = molecular target: GlcNAc(b1-2)[GlcNAc(b1-4)]Man(a1-3)[GlcNAc(b1-2)Man(a1-6)]Man(b1-4)GlcNAc(b1-4)GlcNAc
# Outline: as §1
# [24] = molecular target: GlcNAc(b1-2)[GlcNAc(b1-4)]Man(a1-3)[GlcNAc(b1-4)][GlcNAc(b1-2)Man(a1-6)]Man(b1-4)GlcNAc(b1-4)GlcNAc
# Outline: as §1
# [25] = molecular target: GlcNAc(b1-2)[GlcNAc(b1-4)]Man(a1-3)[GlcNAc(b1-4)][GlcNAc(b1-2)[GlcNAc(b1-6)]Man(a1-6)]Man(b1-4)GlcNAc(b1-4)GlcNAc
# Outline: as §1
# [26] = molecular target: GlcNAc(b1-2)[GlcNAc(b1-4)]Man(a1-3)[GlcNAc(b1-4)][GlcNAc(b1-2)[GlcNAc(b1-6)]Man(a1-6)]Man(b1-4)GlcNAc(b1-4)[Fuc(a1-6)]GlcNAc
# Outline: as §1
# [27] = molecular target: GlcNAc(b1-2)[GlcNAc(b1-6)]Man(a1-6)[GlcNAc(b1-2)Man(a1-3)]Man(b1-4)GlcNAc(b1-4)GlcNAc
# Outline: as §1
# [28] = molecular target: GlcNAc(b1-2)[GlcNAc(b1-6)]Man(a1-6)[GlcNAc(b1-2)Man(a1-3)]Man(b1-4)GlcNAc(b1-4)[Fuc(a1-6)]GlcNAc
# Outline: as §1
# [29] = molecular target: GlcNAc(b1-2)[GlcNAc(b1-6)]Man(a1-6)[GlcNAc(b1-4)][GlcNAc(b1-2)Man(a1-3)]Man(b1-4)GlcNAc(b1-4)GlcNAc
# Outline: as §1
# GlcNAc(b1-3)Fuc = molecular target: GlcNAc(b1-3)Fuc
# Outline: as §1
# GlcNAc(b1-3)Gal = molecular target: GlcNAc(b1-3)Gal
# Outline: as §1
binder,measurement,setting,value
B1,glycan array binding signal (z-score),GalNAc(b1-4)GlcNAc,0.053
same,glycan array binding signal (z-score),[1],-0.402
same,glycan array binding signal (z-score),[2],-0.27
same,glycan array binding signal (z-score),[3],-0.376
same,glycan array binding signal (z-score),GalNAc(b1-4)GlcNAc6S,-0.368
same,glycan array binding signal (z-score),GalNAc(b1-6)GalNAc,-0.114
same,glycan array binding signal (z-score),GalNAc3S(b1-4)GlcNAc,-0.432
same,glycan array binding signal (z-score),GalNAc3S(b1-4)GlcNAc3S,-0.14
same,glycan array binding signal (z-score),[4],-0.399
same,glycan array binding signal (z-score),GalNAc4S6S(b1-4)GlcNAc,0.487
same,glycan array binding signal (z-score),GalNAc6S(b1-4)GlcNAc,-0.039
same,glycan array binding signal (z-score),Glc(a1-4)Glc,0.02
same,glycan array binding signal (z-score),[5],0.332
same,glycan array binding signal (z-score),Glc(a1-6)Glc(a1-6)Glc,-0.268
same,glycan array binding signal (z-score),[6],0.094
same,glycan array binding signal (z-score),Glc(b1-4)Glc,1.04
same,glycan array binding signal (z-score),Glc(b1-6)Glc,0.495
same,glycan array binding signal (z-score),GlcA(b1-3)Gal,-0.107
same,glycan array binding signal (z-score),GlcA(b1-3)GlcNAc,-0.198
same,glycan array binding signal (z-score),GlcA(b1-6)Gal,-0.059
same,glycan array binding signal (z-score),[7],-0.221
same,glycan array binding signal (z-score),[8],-0.379
same,glycan array binding signal (z-score),[9],-0.144
same,glycan array binding signal (z-score),[10],-0.234
same,glycan array binding signal (z-score),[11],-0.116
same,glycan array binding signal (z-score),[12],0.052
same,glycan array binding signal (z-score),[13],-0.364
same,glycan array binding signal (z-score),[14],-0.247
same,glycan array binding signal (z-score),[15],-0.305
same,glycan array binding signal (z-score),[16],0.543
same,glycan array binding signal (z-score),[17],0.146
same,glycan array binding signal (z-score),[18],0.487
same,glycan array binding signal (z-score),[19],0.065
same,glycan array binding signal (z-score),[20],-0.409
same,glycan array binding signal (z-score),[21],-0.445
same,glycan array binding signal (z-score),[22],-0.439
same,glycan array binding signal (z-score),[23],-0.395
same,glycan array binding signal (z-score),[24],-0.019
same,glycan array binding signal (z-score),[25],-0.437
same,glycan array binding signal (z-score),[26],-0.43
same,glycan array binding signal (z-score),[27],-0.469
same,glycan array binding signal (z-score),[28],-0.218
same,glycan array binding signal (z-score),[29],-0.415
same,glycan array binding signal (z-score),GlcNAc(b1-3)Fuc,-0.354
same,glycan array binding signal (z-score),GlcNAc(b1-3)Gal,0.32

# Source: the supplement of paper PMC8728848
